Measurements from PubChem BioAssay AID488969 (Vanderbilt High Throughput Screening Facility, 2010).
Whole data set: some 110,000 compounds, median “z-score” near -0.1, cut for the highest 2% near 2. Some of the results follow. Calls of active or inactive are those of the source.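 Rule for the calls: active = z-score in the third read window above 3 or below -3; inactive = the rest.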

These compounds were tested against Metabotropic glutamate receptor 8 (Rattus norvegicus) (UniProt P70579) (assay: rat mGluR8 modulators via GIRK flux, primary screen, cell-based, thallium flux, HTS (AID 488969)). Conditions: HEK293 rat mGluR8, GIRK (G protein-gated inwardly rectifying potassium channel) thallium flux, FluoZin2; at 10 µM; stronger effect = higher value; submaximal glutamate (EC20) added with thallium.
Chain of UniProt P70579 (P70579 whole entry, looked up): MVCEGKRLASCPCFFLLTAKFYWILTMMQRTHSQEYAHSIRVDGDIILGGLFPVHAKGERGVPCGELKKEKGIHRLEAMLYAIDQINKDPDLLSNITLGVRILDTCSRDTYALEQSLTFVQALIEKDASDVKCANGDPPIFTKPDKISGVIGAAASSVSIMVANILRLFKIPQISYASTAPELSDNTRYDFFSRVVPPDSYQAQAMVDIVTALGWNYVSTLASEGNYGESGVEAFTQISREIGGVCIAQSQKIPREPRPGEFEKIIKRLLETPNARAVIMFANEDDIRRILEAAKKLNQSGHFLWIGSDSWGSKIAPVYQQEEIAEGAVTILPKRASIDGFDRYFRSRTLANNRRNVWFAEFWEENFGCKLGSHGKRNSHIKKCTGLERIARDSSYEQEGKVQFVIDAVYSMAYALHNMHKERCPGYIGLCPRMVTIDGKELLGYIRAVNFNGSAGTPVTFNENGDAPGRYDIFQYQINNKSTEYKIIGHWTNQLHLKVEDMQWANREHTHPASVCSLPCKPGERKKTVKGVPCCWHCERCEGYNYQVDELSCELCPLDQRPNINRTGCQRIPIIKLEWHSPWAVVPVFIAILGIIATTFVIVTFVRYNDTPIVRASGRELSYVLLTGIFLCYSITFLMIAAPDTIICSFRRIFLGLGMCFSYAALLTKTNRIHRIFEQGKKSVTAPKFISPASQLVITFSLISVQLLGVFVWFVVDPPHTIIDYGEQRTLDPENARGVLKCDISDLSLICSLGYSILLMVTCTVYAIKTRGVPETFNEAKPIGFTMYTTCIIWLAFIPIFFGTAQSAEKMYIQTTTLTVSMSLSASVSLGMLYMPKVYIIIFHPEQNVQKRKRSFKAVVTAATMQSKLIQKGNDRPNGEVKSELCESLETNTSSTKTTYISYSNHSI
Compound `S=C(Nc1cccnc1)NC1CCCC1` has a z-score of -0.0835. For `Cc1cc(C2=NNC(=NC3CCCCC3)SC2)c(C)n1-c1c(C)n(C)n(-c2ccccc2)c1=O`, the z-score was 0.562. `C=CCOc1ccc(/C=N/N2C(=O)C(CC(=O)Nc3ccc(F)cc3F)SC2=NC)cc1` (stereo not drawn) gave a z-score of 0.119. For `CN(C)/C=N/C(=S)Nc1ccc(Br)cc1F`, the z-score was 1.46. With `CCOc1ccc2[nH]c(C)cc(=O)c2c1` the z-score was 0.745. Work on `CC[n+]1c(/C=C/c2ccc(N(C)C)cc2)ccc2ccccc21` yielded a z-score of 0.4. For `CC1CCN(C(=O)C2CCCN(S(C)(=O)=O)C2)CC1` (stereo not drawn), the z-score was -0.179. For `Cc1ccc(S(=O)(=O)NCc2n[nH]c(=S)n2C)cc1`, the z-score was -0.112. `O=C(Nc1cccc(Cl)c1)c1csc(-c2ccccc2)n1` showed a z-score of -0.387. `Cc1ccc(OCCCC(=O)Nc2ccccc2C(F)(F)F)cc1` gave a z-score of -0.375. Compound `C/C(NC(=O)c1cccc(F)c1)=C1/C(=O)C[C@@H]2[C@H]1C2(C)C` has a z-score of 0.867. For `Cc1ccc2nc(N3C(=O)C(O)=C(C(=O)c4ccco4)C3c3cccs3)sc2c1` (stereo not drawn), the z-score was -1.09. `CCOC(=O)c1c(C)nc2sc3c(=O)n(-c4ccc(C(C)=O)cc4)cnc3c2c1-c1ccc(Cl)cc1` showed a z-score of -0.533. `O=C(CCC1CCCCC1)Nc1c[nH]c(=O)[nH]c1=O` showed a z-score of -0.157. In the case of `Cc1cccc(/C=C2\CS/C(=C\c3cccc(C)c3)C2=O)c1`, the z-score is reported as -0.0758. `COc1ccc2c(CC(=O)NC3CCCc4ccccc43)coc2c1` (stereo not drawn) was tested, and the z-score was -0.484. For `CCN1CCCC1CNCc1ccccc1OCc1ccc(F)cc1` (stereo not drawn), the z-score was -0.146. In the case of `COc1ccc(-c2noc(COc3ccc4c(c3)OCO4)n2)cc1OC`, the z-score is reported as -0.634. Work on `COc1ccc(NC(=O)c2ccc(-c3ccccc3)cc2)cc1NS(=O)(=O)c1ccc(F)cc1` yielded a z-score of -0.254. Compound `CCOC(=O)c1c(NC(=O)Nc2cccc(Cl)c2)sc(C)c1C` has a z-score of 0.0494. `Cc1cc(NC(=O)CN2CCOCC2)n(-c2nc3ccccc3s2)n1` gave a z-score of 0.191. `CC1CCCC(C(=O)O)N1C(=O)CCS` (stereo not drawn) gave a z-score of 1.41. With `Cc1ccc(N(CCCCN2C(=O)c3ccccc3C2=O)C(=O)c2cccc([N+](=O)[O-])c2)cc1` the z-score was -0.0015. `CCCCNC(=S)N(C)/N=C/c1ccc(OCC(=O)Nc2c(C)cc(C)cc2C)c(OC)c1` gave a z-score of 0.00502. In the case of `CC(C)C(=O)Nc1cc(S(=O)(=O)Nc2ccc(Cl)cc2)ccc1Cl`, the z-score is reported as -0.205. `Cc1cccc(OC(C)C(=O)N2CCCc3ccccc32)c1` (stereo not drawn) gave a z-score of -0.141. For `O=C(N/N=C/c1c[nH]c2ccccc12)C1CC1c1ccccc1` (stereo not drawn), the z-score was -0.408. For `COc1ccccc1-n1c(SCC(=O)NC2CCS(=O)(=O)C2)nc2cc([N+](=O)[O-])ccc21` (stereo not drawn), the z-score was -0.116. `Brc1ccc2ncnc(NCc3ccco3)c2c1` gave a z-score of -0.314. For `CCOC(=O)CNC(=O)c1ccc(C)cc1`, the z-score was -0.233. `CC(C)CCNC(=O)c1cc(-c2ccco2)nc2ccccc12` gave a z-score of -0.0704. `CCOC(=O)c1ccc(-n2c(=O)[nH]c3ccccc3c2=O)cc1` gave a z-score of 0.447. Compound `Cc1ccc(C)c(-n2c(Cc3cccs3)n[nH]c2=S)c1` has a z-score of -0.178. For `CCOc1ccc(Br)cc1S(=O)(=O)Nc1cccc(S(=O)(=O)N(C)C)c1`, the z-score was -0.185. Work on `CCc1ccc(OCCOCC(O)CNC(C)CC)cc1` (stereo not drawn) yielded a z-score of 0.0842. `Cc1nn(CC(=O)NCCCN2CCOCC2)c(C)c1[N+](=O)[O-]` showed a z-score of 0.298. `COc1ccc(S(=O)(=O)Nc2ccc(C(F)(F)F)cc2)cc1OC` showed a z-score of -0.216. Work on `CCCCS(=O)CC(CS(=O)CCCC)OC(=O)c1ccc(C)cc1` (stereo not drawn) yielded a z-score of 0.313. With `CS(=O)(=O)N(CC(=O)N1CCN(c2ccccc2)CC1)c1cccc(Br)c1` the z-score was 0.00864. For `O=C(CNC(=O)c1ccc(Cl)cc1Cl)NCCCn1ccnc1`, the z-score was -0.00696. Work on `C=CCn1c(SCC(=O)OC)nc2sc3c(c2c1=O)CCN(C)C3` yielded a z-score of 0.122. Work on `COC(=O)Cc1c(O)ccn(Cc2cccc3ccccc23)c1=O` yielded a z-score of -0.166. `CCCNC(=O)N1CCC(C(=O)c2cccc(F)c2)CC1` showed a z-score of -0.0201. `CCc1cc2c(SCC(=O)c3ccc(C)cc3)ncnc2s1` showed a z-score of 0.131. Work on `COc1cc(NC(=O)C2=C(N3CCOCC3)/C(=C\c3ccc(Br)cc3)CC2)cc(OC)c1OC` yielded a z-score of 0.467. For `C=CCN1C(=O)/C(=C/c2ccc(OCC(=O)O)cc2)S/C1=N/c1nccs1`, the z-score was -0.81. `COC(=O)CSc1nc(NCC(C)C)nc(N2CCOCC2)n1` was tested, and the z-score was -0.0815. Compound `Cc1cc(C)nc(-n2nc(C)cc2NC(=O)c2cccc(S(=O)(=O)N3CCOCC3)c2)n1` has a z-score of -0.43. `O=C(Cn1c(C(=O)NCc2ccco2)cc2sccc21)c1ccccc1` was tested, and the z-score was -0.393. Work on `O=c1[nH]c(Cn2nnc(-c3ccccc3)n2)nc2scc(-c3ccccc3)c12` yielded a z-score of 0.724. Work on `O=C(CS(=O)CC(=O)N(c1cccc(F)c1)C(C(=O)NC1CCCCC1)c1ccco1)Nc1ccc(F)cc1` (stereo not drawn) yielded a z-score of -0.153. In the case of `CCc1cccc(CC)c1NC(=O)c1cc(CN2C(=O)c3ccccc3C2=O)ccc1OC`, the z-score is reported as -0.874. Compound `Cc1cnc(NC(=O)CSc2nnc(Cc3ccccc3)o2)s1` has a z-score of 0.123. `Cc1c(NC(=O)C2CCCN2S(=O)(=O)c2cccc3nsnc23)cccc1C(=O)O` (stereo not drawn) showed a z-score of -0.847. `O=C1CCCN1CCC1CCN(C2CC(=O)N(Cc3ccc(N4CCCC4=O)cc3)C2=O)CC1` (stereo not drawn) was tested, and the z-score was 0.557. `Cc1ccc(C)c(OCC(=O)N/N=C/c2ccsc2)c1` gave a z-score of 1.97. In the case of `Cc1ccc(/C(N)=N/OC(=O)Oc2ccccc2)cc1`, the z-score is reported as -0.133. For `Cc1ccc(C)c(N(C(=O)Cn2nnc(-c3cccs3)n2)C(C(=O)NC2CC2)c2ccc(C)o2)c1` (stereo not drawn), the z-score was -0.759. `CCC(=O)NNC(=O)CCC(=O)Nc1ccccc1` gave a z-score of 0.0236. Work on `Cc1ccc(CSc2nnc(-c3ccc(NS(=O)(=O)c4ccccc4)cc3)o2)cc1` yielded a z-score of -0.055. `COc1cc(OC)c(OC)cc1CN1CCN(Cc2cccn2C)CC1` gave a z-score of -0.169. `CCOc1ccccc1C(=O)N(Cc1ccco1)C1CCS(=O)(=O)C1` (stereo not drawn) showed a z-score of 0.0514. `CC1CC/C(=C\c2ccc3c(c2)OCO3)C(=O)/C1=C/c1ccc2c(c1)OCO2` (stereo not drawn) gave a z-score of -0.192. In the case of `COC(=O)CSc1nsc(SCC(=O)OC)n1`, the z-score is reported as -0.878. `CCCS(=O)(=O)N1CCCC(C(=O)N2CCN(c3ccccc3)CC2)C1` (stereo not drawn) was tested, and the z-score was 0.0741. With `Cc1nc(C)n(CC(O)COc2ccc3ccccc3c2)n1` (stereo not drawn) the z-score was -0.726. `CCOC(=O)C1=C(C)NC(C)=C(C(=O)OCCNC(=O)c2cccnc2)C1c1cccc([N+](=O)[O-])c1` (stereo not drawn) gave a z-score of -0.0655. `OCCN1CCOCCOCCN(CCO)CCN(CCO)CC1` was tested, and the z-score was 0.325. In the case of `CCOC(=O)c1c(NC(=O)C(Sc2ccccc2)c2ccccc2)sc(C(=O)N(C)C)c1C` (stereo not drawn), the z-score is reported as -0.221. `CCN1C(=O)C2C(C1=O)N1C(c3cccs3)C3C(=O)N(CC)C(=O)C3N1C2c1cccs1` (stereo not drawn) showed a z-score of -0.0354. `O=c1c(-c2cc3ccccc3o2)[n+]([O-])c2ccccc2n1OCc1ccccn1` showed a z-score of -0.17. `Cc1cnc(C(=O)OCC(=O)Nc2cccc(Cl)c2)cn1` gave a z-score of -0.681. For `Cc1ccc(-c2nnc(N3CCN(C(=O)CSc4ncn[nH]4)CC3)c3ccccc23)cc1`, the z-score was -0.877. `C(=N\N=C\c1cccnc1)/c1cccnc1` showed a z-score of -0.247. With `CC1CN(C(=O)C(Sc2ccccc2)c2ccccc2)CC(C)O1` (stereo not drawn) the z-score was -0.352. Work on `CC1(C)CC(NS(=O)(=O)c2ccc(S(=O)(=O)N3CCOCC3)cc2)CCO1` (stereo not drawn) yielded a z-score of 2.05. With `CC1CCN(c2cc(N3CCC(C)CC3)c([N+](=O)[O-])cc2/C=C(\C#N)c2nn(-c3ccccc3)c(N)c2C#N)CC1` the z-score was -0.103. Compound `Cc1ccc(C(=O)N/C(=C\c2cccs2)C(=O)NC2CCCCC2)cc1` has a z-score of -0.27. In the case of `O=C(N/N=C/c1cccc([N+](=O)[O-])c1O)c1cccs1`, the z-score is reported as 1.3. In the case of `COCCn1c(=NC(=O)C(C)(C)C)sc2cc([N+](=O)[O-])ccc21`, the z-score is reported as -0.196. Work on `CNC(=S)Nc1ccc(OC)c(OC)c1` yielded a z-score of 0.0698. With `Cc1ccc(CNC(=O)c2ccc(Cn3nc(C)c(Cl)c3C)o2)cc1` the z-score was 0.794. With `COc1ccc(-n2c(=O)c3ccccc3c3ccccc3c2=O)cc1` the z-score was -0.0718. Work on `Cc1[nH][nH]c(=O)c1C(c1ccc(-c2ccc(Cl)cc2Cl)o1)c1c(C)[nH][nH]c1=O` yielded a z-score of -1.11. `CCCCNC(=O)C1CCCNC1=O` (stereo not drawn) was tested, and the z-score was 0.0768. In the case of `COCCn1c(C)cc2c(c1=O)C(c1ccccc1F)C(C#N)=C(N)O2` (stereo not drawn), the z-score is reported as -0.263. `Cc1ccc(S(=O)(=O)Nc2ccc(Cl)cc2C(=O)c2ccc(F)cc2)cc1` was tested, and the z-score was 0.0268. `O=C(NN1C(=O)C2C3C=CC(C3)[C@H]2C1=O)c1cccnc1` (stereo partly drawn) gave a z-score of 0.075. With `O=C(Nc1ccc(Cl)cc1)N1CCSCC1` the z-score was -0.498. Work on `O=C(NCCO)c1cc2c(s1)CCC2` yielded a z-score of -0.0332. `Cc1cccc(C(=O)Nc2nc(C)c(C(=O)Nc3ccc4c(c3)CCC4)s2)c1` showed a z-score of -0.0981. With `O=C(Nc1ccc2c(c1)OCCO2)c1cnccn1` the z-score was 0.074. Work on `Cc1nnc(SCc2cc(=O)oc3cc(O)ccc23)n1Cc1ccccc1` yielded a z-score of -0.533. With `CC(C)COC(=O)N(C)c1ccc(C(O)(C(F)(F)F)C(F)(F)F)cc1` the z-score was -0.931. Compound `CCn1c(C(O)c2ccc3c(c2)OCO3)nc2ccccc21` (stereo not drawn) has a z-score of 0.27. Work on `CCOc1ccccc1NC(=O)CSc1c(C)n[nH]c1C` yielded a z-score of -0.144. Compound `CC(=O)NC(C)(C)C1CC=C(C)/C(=N\O)C1` (stereo not drawn) has a z-score of 0.283. `O=C(COC(=O)c1cccc2ccccc12)Nc1cccnc1Cl` gave a z-score of -0.0151. In the case of `Cc1ccc(NC(=S)Nc2ccc3cn[nH]c3c2)cc1C`, the z-score is reported as -0.174. For `O=C(NC1CCCC1)c1cnn2c(C(F)(F)F)cc(-c3ccc4c(c3)OCO4)nc12`, the z-score was -0.558. `O=C(c1ccc(N2CCN(CCO)CC2)nc1)N1CCOCC1` showed a z-score of 0.0375. In the case of `CC(=O)N(CN1C(=O)c2ccccc2C1=O)c1ccc2c(c1)oc1ccccc12`, the z-score is reported as -0.224. Work on `O=C(NC1CCC(NC(=O)C2CCCO2)CC1)C1CCCO1` (stereo not drawn) yielded a z-score of -0.103. Work on `CC(=O)/C(=N\Nc1ccccc1)Oc1ccc([N+](=O)[O-])cc1` yielded a z-score of 0.876. With `COc1ccc(-c2noc(-c3cc(Cl)ccc3Cl)n2)cc1OC` the z-score was active: 3.41. For `CCOC(=O)c1ccccc1NC(=O)c1cncc(Br)c1`, the z-score was -0.19. Compound `Cc1noc(NS(=O)(=O)c2ccc(NC(=O)C34CC5CC(C3)CC(n3cnc(Br)n3)(C5)C4)cc2)c1C` has a z-score of -0.118. Compound `Cc1nn(-c2ccccc2)c2c1C1(C(=O)N3c4c(cccc41)C(C)CC3(C)C)C(C#N)=C(N)O2` (stereo not drawn) has a z-score of -0.264.
